# Screen size: about 2,000 compounds; about 110 (5.5%) showed an effect of 50% or more. This is one part of the list.
# Biological target: Genome polyprotein (dengue virus type 2) (UniProt P29990)
# [1] = Thailand/16681/1984, Concentration 25.0 uM, Number of replicates 1.0
smiles,measurement,setting,value
Cn1cc(CNC(=O)c2cccc3ncccc23)cn1,inhibition,"Thailand/16681/1984, Concentration 49.5 uM, Number of replicates 2.0, Standard deviation 0.43206015672712206 %",-3.35%
same,inhibition,"Thailand/16681/1984, Concentration 99.01 uM, Number of replicates 2.0, Standard deviation 1.3916787699025177 %",-0.916%
same,inhibition,"Thailand/16681/1984, Concentration 198.0 uM, Number of replicates 2.0, Standard deviation 0.9897515130549714 %",0.136%
COc1cc(NC(=O)C2CCN(c3ccc(C=O)cc3)CC2)c(Cl)cc1Cl,inhibition,[1],9.48%
O=Cc1ccc(N2CCC(C(=O)NCc3ccccc3)CC2)cc1,inhibition,[1],14.5%
CS(=O)(=O)c1ccc(N2CCN(C(=O)C3CCN(c4ccc(C=O)cc4)CC3)CC2)c([N+](=O)[O-])c1,inhibition,[1],18.6%
c1ccc2c([C@H]3CCN(Cc4ncco4)C3)c[nH]c2c1,inhibition,"Thailand/16681/1984, Concentration 49.5 uM, Number of replicates 2.0, Standard deviation 0.1074412519861532 %",0.43%
same,inhibition,"Thailand/16681/1984, Concentration 99.01 uM, Number of replicates 2.0, Standard deviation 0.6341422413381848 %",1.18%
same,inhibition,"Thailand/16681/1984, Concentration 198.0 uM, Number of replicates 2.0, Standard deviation 0.7339431969199801 %",1.57%
Cc1ccc2nc(NC(=O)C3CCN(c4ccc(C=O)cc4)CC3)sc2c1,inhibition,[1],12.1%
COc1ccc(CN(C(=O)C2CCN(c3ccc(C=O)cc3)CC2)C2CC2)cc1,inhibition,[1],12.8%
O=Cc1ccc(N2CCC(C(=O)NCc3ccccc3-c3ccccc3)CC2)cc1,inhibition,[1],0.423%
c1ccc2cc(CN3CCC[C@H](c4cc5ccccc5[nH]4)C3)ncc2c1,inhibition,"Thailand/16681/1984, Concentration 49.5 uM, Number of replicates 2.0, Standard deviation 0.45841609838753045 %",3.61%
same,inhibition,"Thailand/16681/1984, Concentration 99.01 uM, Number of replicates 2.0, Standard deviation 0.07306004460708841 %",7.05%
same,inhibition,"Thailand/16681/1984, Concentration 198.0 uM, Number of replicates 2.0, Standard deviation 0.7024267951278979 %",12.2%
O=Cc1ccc(N2CCC(C(=O)Nc3ccc(F)cc3I)CC2)cc1,inhibition,[1],13.1%
Cc1cc(CO)c2cccc(Cc3cccc(NC(=O)[C@@H]4C[C@@H](O)CN4)c3)c2n1,inhibition,"Thailand/16681/1984, Concentration 49.95 uM, Number of replicates 2.0, Standard deviation 2.441952325018875 %",6.86%
same,inhibition,"Thailand/16681/1984, Concentration 99.9 uM, Number of replicates 2.0, Standard deviation 0.9249931753459224 %",21.6%
Nc1nccc2cc(Br)ccc12,inhibition,"Thailand/16681/1984, Concentration 49.95 uM, Number of replicates 2.0, Standard deviation 5.1898726049351325 %",-2.94%
same,inhibition,"Thailand/16681/1984, Concentration 99.9 uM, Number of replicates 2.0, Standard deviation 6.552121336877266 %",-2.95%
O=Cc1ccc(N2CCC(C(=O)NCc3c(F)ccc(F)c3F)CC2)cc1,inhibition,[1],12.3%
CCCCCC(=O)N[C@@H](Cc1ccccc1)C(=O)NCc1cccc(CN)c1,inhibition,"Thailand/16681/1984, Concentration 49.5 uM, Number of replicates 2.0, Standard deviation 0.5911657110409295 %",-0.287%
same,inhibition,"Thailand/16681/1984, Concentration 99.01 uM, Number of replicates 2.0, Standard deviation 0.7592516208074989 %",-0.251%
same,inhibition,"Thailand/16681/1984, Concentration 198.0 uM, Number of replicates 2.0, Standard deviation 1.593950905190228 %",-0.639%
O=C(O)c1cccc(NC(=O)c2cccc(Br)c2)c1,inhibition,"Thailand/16681/1984, Concentration 49.5 uM, Number of replicates 2.0, Standard deviation 1.0600871432274672 %",0.013%
same,inhibition,"Thailand/16681/1984, Concentration 99.01 uM, Number of replicates 2.0, Standard deviation 0.9483482403189308 %",0.568%
same,inhibition,"Thailand/16681/1984, Concentration 198.0 uM, Number of replicates 2.0, Standard deviation 1.6307196050968895 %",1.74%
O=C(NC[C@H]1CCOC1)c1cc(Cl)ccc1NS(=O)(=O)c1ccc(Oc2ccccc2Cl)cc1,inhibition,"Thailand/16681/1984, Concentration 49.5 uM, Number of replicates 2.0, Standard deviation 2.9570930238802475 %",78.1%
same,inhibition,"Thailand/16681/1984, Concentration 99.01 uM, Number of replicates 2.0, Standard deviation 0.09728436725720986 %",83.4%
same,inhibition,"Thailand/16681/1984, Concentration 198.0 uM, Number of replicates 2.0, Standard deviation 0.16101849440059574 %",79%
Cc1cnccc1NC(=O)c1cc(C(C)C)n(C)n1,inhibition,"Thailand/16681/1984, Concentration 49.5 uM, Number of replicates 2.0, Standard deviation 1.5485783897754013 %",-6.25%
same,inhibition,"Thailand/16681/1984, Concentration 99.01 uM, Number of replicates 2.0, Standard deviation 0.5615723645792781 %",-4.79%
same,inhibition,"Thailand/16681/1984, Concentration 198.0 uM, Number of replicates 2.0, Standard deviation 0.913779922005902 %",-1.98%
COc1nc(Br)cnc1NC(=O)C1CCN(c2ccc(C=O)cc2)CC1,inhibition,[1],12.3%
O=Cc1ccc(N2CCC(C(=O)N(C3CCCCC3)C3CCCCC3)CC2)cc1,inhibition,[1],10.2%
Cc1cc(CO)c2cccc(NC(=O)C3CNC3)c2n1,inhibition,"Thailand/16681/1984, Concentration 99.9 uM, Number of replicates 2.0, Standard deviation 1.2849235527062883 %",-8.19%
Cc1cc(C)cc(OCCN(C)C(=O)C2CCN(c3ccc(C=O)cc3)CC2)c1,inhibition,[1],11.6%
CCn1nccc1CN1CCC(c2c[nH]c3cccnc23)CC1,inhibition,"Thailand/16681/1984, Concentration 49.5 uM, Number of replicates 2.0, Standard deviation 1.2123103279136882 %",-0.438%
same,inhibition,"Thailand/16681/1984, Concentration 99.01 uM, Number of replicates 2.0, Standard deviation 0.9380972206038385 %",-0.368%
same,inhibition,"Thailand/16681/1984, Concentration 198.0 uM, Number of replicates 2.0, Standard deviation 0.6436790194849873 %",0.392%
Cn1cc(CNC(=O)c2ccccc2C2CCNCC2)cn1,inhibition,"Thailand/16681/1984, Concentration 49.5 uM, Number of replicates 2.0, Standard deviation 1.9707471026255017 %",-2.64%
same,inhibition,"Thailand/16681/1984, Concentration 99.01 uM, Number of replicates 2.0, Standard deviation 1.735749172264401 %",-2.8%
same,inhibition,"Thailand/16681/1984, Concentration 198.0 uM, Number of replicates 2.0, Standard deviation 0.011774480774791443 %",-2.33%
CN1CCN(c2ccc(CNC(=O)C3CCN(c4ccc(C=O)cc4)CC3)cc2)CC1,inhibition,[1],13.3%
C[C@@H](C(=O)c1cccc(Cl)c1)N(C(=O)C1CCN(c2ccc(C=O)cc2)CC1)C(C)(C)C,inhibition,[1],11%
CSCC[C@H](NC(=O)OC(C)(C)C)C(=O)N1CCC[C@H]1C(=O)Nc1cccc2ncccc12,inhibition,"Thailand/16681/1984, Concentration 49.5 uM, Number of replicates 2.0, Standard deviation 0.8146661497156525 %",0.598%
same,inhibition,"Thailand/16681/1984, Concentration 99.01 uM, Number of replicates 2.0, Standard deviation 1.2117142239617744 %",1.55%
same,inhibition,"Thailand/16681/1984, Concentration 198.0 uM, Number of replicates 2.0, Standard deviation 0.6840708310770393 %",1.15%
COc1ccc(Cl)c2sc(NC(=O)c3ccccc3NS(=O)(=O)c3ccc(Cl)cc3)nc12,inhibition,"Thailand/16681/1984, Concentration 198.0 uM, Number of replicates 2.0, Standard deviation 9.166560145189157 %",8.28%
Cc1nc(Br)ccc1NC(=O)C1CCN(c2ccc(C=O)cc2)CC1,inhibition,[1],13.4%
COC(=O)c1ccc(F)c(Cn2cc(C3CCNCC3)c(C)n2)c1,inhibition,"Thailand/16681/1984, Concentration 49.5 uM, Number of replicates 2.0, Standard deviation 1.96689901106276 %",-0.608%
same,inhibition,"Thailand/16681/1984, Concentration 99.01 uM, Number of replicates 2.0, Standard deviation 1.219684003354366 %",-0.57%
same,inhibition,"Thailand/16681/1984, Concentration 198.0 uM, Number of replicates 2.0, Standard deviation 1.1083766841745815 %",0.281%
CC(=O)N1CCC(N(C)C(=O)C2CCN(c3ccc(C=O)cc3)CC2)CC1,inhibition,[1],10.9%
C[C@H](NC(=O)C1CCN(c2ccc(C=O)cc2)CC1)c1ccc([N+](=O)[O-])cc1,inhibition,[1],13.8%

# Source: ChEMBL document CHEMBL5606460, “ASAP - DENV-2 NS2B-NS3 protease fluorescence single point” (2024)
